Experimental data taken from article PMC5775257.
No constants are given. Whether binding was seen depends on the method and setting. In cells and extracts the contact can be indirect. Some results given as binding are weak or reduced against the parent protein; the word gives no strength. Where a sequence is shown, tags or fusion partners need not be part of it.

Key:
Assay in all cases: co-IP; anti-GFP (polyclonal, Protein G Dynabeads) immunoprecipitation from lysates of transfected HEK293T cells, 4 h at 4 °C, with or without RNase; immunoblot
GFP-Roquin-1 (aa 1–509) = molecular target: T1, GFP-Roquin-1 (aa 1–509) (UniProt Q4VGL6)
T1 sequence: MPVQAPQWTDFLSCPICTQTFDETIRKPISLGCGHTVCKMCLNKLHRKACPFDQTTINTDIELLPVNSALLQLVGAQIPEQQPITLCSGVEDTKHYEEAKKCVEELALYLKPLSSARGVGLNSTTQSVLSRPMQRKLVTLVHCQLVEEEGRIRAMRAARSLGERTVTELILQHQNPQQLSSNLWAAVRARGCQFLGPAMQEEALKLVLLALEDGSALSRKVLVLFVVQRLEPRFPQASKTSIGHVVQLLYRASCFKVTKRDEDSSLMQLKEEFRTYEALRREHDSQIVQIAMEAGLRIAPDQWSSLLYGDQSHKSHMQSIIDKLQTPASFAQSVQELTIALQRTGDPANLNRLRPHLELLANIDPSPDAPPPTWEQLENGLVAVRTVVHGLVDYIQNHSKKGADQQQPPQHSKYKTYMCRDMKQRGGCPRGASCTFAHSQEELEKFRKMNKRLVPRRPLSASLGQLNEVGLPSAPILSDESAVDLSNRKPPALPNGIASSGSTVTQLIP

GFP-Roquin-1 full-length = molecular target: T2, GFP-Roquin-1 full-length (UniProt Q4VGL6)
T2 sequence: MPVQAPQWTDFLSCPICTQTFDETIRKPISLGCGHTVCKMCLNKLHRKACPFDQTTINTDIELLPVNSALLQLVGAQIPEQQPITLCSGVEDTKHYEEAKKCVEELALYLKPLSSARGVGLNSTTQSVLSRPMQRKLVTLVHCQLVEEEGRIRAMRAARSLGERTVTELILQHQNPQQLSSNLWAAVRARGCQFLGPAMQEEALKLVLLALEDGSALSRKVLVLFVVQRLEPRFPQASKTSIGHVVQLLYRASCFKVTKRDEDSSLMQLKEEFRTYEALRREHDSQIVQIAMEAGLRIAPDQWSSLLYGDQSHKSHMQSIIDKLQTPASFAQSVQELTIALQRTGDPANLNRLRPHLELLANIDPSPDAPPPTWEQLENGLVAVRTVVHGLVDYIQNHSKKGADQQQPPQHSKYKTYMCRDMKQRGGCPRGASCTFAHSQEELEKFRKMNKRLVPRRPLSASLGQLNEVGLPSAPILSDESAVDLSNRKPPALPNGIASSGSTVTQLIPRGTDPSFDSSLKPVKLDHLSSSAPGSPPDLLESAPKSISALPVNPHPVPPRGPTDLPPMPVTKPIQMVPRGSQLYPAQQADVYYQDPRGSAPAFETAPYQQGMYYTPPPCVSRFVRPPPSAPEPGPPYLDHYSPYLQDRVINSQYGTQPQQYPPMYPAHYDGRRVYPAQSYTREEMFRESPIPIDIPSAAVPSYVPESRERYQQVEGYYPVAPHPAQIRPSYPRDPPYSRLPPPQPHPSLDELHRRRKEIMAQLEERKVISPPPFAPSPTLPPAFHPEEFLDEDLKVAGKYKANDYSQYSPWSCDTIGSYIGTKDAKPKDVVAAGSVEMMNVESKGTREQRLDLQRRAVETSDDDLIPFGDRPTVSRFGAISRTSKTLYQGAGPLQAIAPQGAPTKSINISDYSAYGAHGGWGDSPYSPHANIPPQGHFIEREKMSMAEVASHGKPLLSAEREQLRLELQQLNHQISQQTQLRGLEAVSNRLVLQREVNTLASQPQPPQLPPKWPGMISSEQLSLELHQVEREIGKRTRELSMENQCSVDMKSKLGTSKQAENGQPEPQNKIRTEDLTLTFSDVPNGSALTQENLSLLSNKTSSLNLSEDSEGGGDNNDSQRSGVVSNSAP

[1] = molecular target: T3, GFP-Roquin-1 (aa 509–1130) (UniProt Q4VGL6)
T3 sequence: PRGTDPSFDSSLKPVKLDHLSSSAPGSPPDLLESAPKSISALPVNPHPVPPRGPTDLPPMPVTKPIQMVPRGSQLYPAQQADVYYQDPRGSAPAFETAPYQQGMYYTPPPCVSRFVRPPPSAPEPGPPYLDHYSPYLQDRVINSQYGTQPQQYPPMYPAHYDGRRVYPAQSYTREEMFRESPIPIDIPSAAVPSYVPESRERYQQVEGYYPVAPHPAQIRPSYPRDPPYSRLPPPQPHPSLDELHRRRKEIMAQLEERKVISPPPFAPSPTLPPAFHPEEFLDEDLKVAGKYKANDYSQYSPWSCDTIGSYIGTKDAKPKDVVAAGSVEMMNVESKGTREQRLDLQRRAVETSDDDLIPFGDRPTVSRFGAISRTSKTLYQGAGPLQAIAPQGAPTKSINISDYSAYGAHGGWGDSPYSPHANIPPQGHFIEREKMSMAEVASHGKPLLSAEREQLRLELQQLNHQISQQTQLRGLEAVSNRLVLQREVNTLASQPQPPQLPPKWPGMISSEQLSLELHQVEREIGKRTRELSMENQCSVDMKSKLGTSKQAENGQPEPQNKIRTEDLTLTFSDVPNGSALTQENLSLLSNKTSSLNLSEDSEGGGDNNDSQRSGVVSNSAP

B1: NUFIP2 (overexpressed) (protein, UniProt Q7Z417 1-695)
chain: MEEKPGQPQPQHHHSHHHPHHHPQQQQQQPHHHHHYYFYNHSHNHHHHHHHQQPHQYLQHGAEGSPKAQPKPLKHEQKHTLQQHQETPKKKTGYGELNGNAGEREISLKNLSSDEATNPISRVLNGNQQVVDTSLKQTVKANTFGKAGIKTKNFIQKNSMDKKNGKSYENKSGENQSVDKSDTIPIPNGVVTNNSGYITNGYMGKGADNDGSGSESGYTTPKKRKARRNSAKGCENLNIVQDKIMQQETSVPTLKQGLETFKPDYSEQKGNRVDGSKPIWKYETGPGGTSRGKPAVGDMLRKSSDSKPGVSSKKFDDRPKGKHASAVASKEDSWTLFKPPPVFPVDNSSAKIVPKISYASKVKENLNKTIQNSSVSPTSSSSSSSSTGETQTQSSSRLSQVPMSALKSVTSANFSNGPVLAGTDGNVYPPGGQPLLTTAANTLTPISSGTDSVLQDMSLTSAAVEQIKTSLFIYPSNMQTMLLSTAQVDLPSQTDQQNLGDIFQNQWGLSFINEPSAGPETVTGKSSEHKVMEVTFQGEYPATLVSQGAEIIPSGTEHPVFPKAYELEKRTSPQVLGSILKSGTTSESGALSLEPSHIGDLQKADTSSQGALVFLSKDYEIESQNPLASPTNTLLGSAKEQRYQRGLERNDSWGSFDLRAAIVYHTKEMESIWNLQKQDPKRIITYNEAMDSPDQ
- binding (GFP-Roquin-1 (aa 1–509)): binds
- binding (GFP-Roquin-1 full-length): binds
- binding [1]: no binding
